From the supplement of paper PMC3334620
The full ranking holds about 33,000 sequences; the median of “E-score (-0.5 to 0.5)” is about -0.016, and the highest 2% start at about 0.32. The list shows a part of the results.

target: T1, Stp1 (UniProt B3LFK1); test: PBM E-score (8-mer binding enrichment) (E-score (-0.5 to 0.5)); higher = stronger / more preferred TF binding; most listed sequences are background and not binding sites; settings: protein concentration: 200 nM; construct: GST-full length
T1 sequence: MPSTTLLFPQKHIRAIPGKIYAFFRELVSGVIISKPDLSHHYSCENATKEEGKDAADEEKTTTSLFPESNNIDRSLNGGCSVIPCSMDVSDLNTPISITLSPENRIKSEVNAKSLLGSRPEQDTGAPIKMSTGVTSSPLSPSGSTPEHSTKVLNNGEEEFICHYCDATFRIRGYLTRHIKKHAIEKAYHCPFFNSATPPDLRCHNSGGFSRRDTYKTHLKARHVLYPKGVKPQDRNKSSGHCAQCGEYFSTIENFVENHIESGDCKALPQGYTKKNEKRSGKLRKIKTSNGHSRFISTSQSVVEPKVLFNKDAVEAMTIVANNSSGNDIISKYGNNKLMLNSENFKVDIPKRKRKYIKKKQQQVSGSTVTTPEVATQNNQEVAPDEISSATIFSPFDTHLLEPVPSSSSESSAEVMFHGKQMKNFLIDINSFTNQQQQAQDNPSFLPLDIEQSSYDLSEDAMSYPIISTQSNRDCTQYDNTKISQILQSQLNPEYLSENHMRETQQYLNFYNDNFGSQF
Procedure, shortened: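 Full-length yeast transcription factors or their DNA-binding domains, GST-tagged and expressed with PURExpress, were applied at about 100-200 nM to universal all-10-mer Agilent arrays. These arrays had been made double-stranded by primer extension on fresh or once-stripped slides. Detection used fluorescent anti-GST, normalisation used masliner, and E-scores for ungapped eight-base words pooled with reverse complements came from the Universal PBM Analysis Suite.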

Sequence | PBM E-score
TGCATAAA | 0.152
AAGCGACT | -0.0822
GCTCAACA | 0.00726
ATGACAAC | 0.171
GAAACGTA | 0.0132
CCGAGGAC | -0.19
GAACAGCA | -0.0185
ACAGTCGT | -0.0468
GTGGCGAA | 0.167
AAAATTCC | 0.14
GTTTCCCA | 0.0404
GATGCGAC | -0.0969
CACGAAGC | 0.0746
ACTTGCCT | 0.00572
GGAACAAC | 0.0872
CCGCTCAC | -0.01
GCTTACAC | -0.0587
ACGTTGGG | -0.132
ATCCTGCC | -0.0501
ACGGTATA | 0.0648
GAGGGAAC | -0.0721
GAGGTAAA | 0.0679

Sequence | PBM E-score
AACGTGTC | -0.177
GGAGAGCC | -0.00695
TCAGGAGA | 0.0156
CCGTAACG | -0.00441
GTGCGGCA | 0.469
ACAATAGC | -0.0477
ACTTAAGA | 0.184
CCGTCTGA | 0.221
CCGTTTGA | 0.299
AGTTCAGA | 0.00436
CGCTCACA | 0.0478
AGGACCTG | -0.24
ATCAGCTA | -0.173
CTAGCCCA | -0.233
CGATGACA | 0.127
CTGGCGGA | -0.286
AGGATGTC | -0.0107
GAAACATA | 0.0803
AAGTGAAA | 0.106
ACTATTGC | 0.173
CTACAACA | -0.00032
GCGCACTA | 0.258

Sequence | PBM E-score
GCGCGCCC | 0.124
CCATGAAG | -0.066
ATAGACGA | 0.0213
ATAGTAGC | 0.1
AACTTTCT | -0.0269
ATTTCTCC | -0.0406
AATGCGCC | 0.303
GGAAGGCA | 0.246
CCATTTTA | 0.216
CGTGGCCA | 0.00473
GTGTGACA | -0.157
GGACGGCA | 0.441
CGGATCGC | 0.0759
AGGTTTCG | -0.147
ATCAGGAC | -0.0912
AGTATGGC | -0.0679
CTGACAAC | -0.0205
ACTTGCCG | 0.209
ATCGAGTG | 0.141
GGAGCACC | -0.188
AAGCTGAA | -0.00188
CGACCACG | 0.0476

Sequence | PBM E-score
CTGCAGCC | -0.227
GTTGATAA | 0.242
GGCCTCCA | -0.183
ACGGCTTC | 0.417
GAGAATGA | 0.133
AAGGTGCC | 0.216
GTCCGCGA | -0.0616
ATCGCCGC | 0.45
ATTTCTTA | 0.163
GCCCCCGA | -0.304
ACTGTTGG | -0.147
AGACGAAT | 0.0892
AAGCATCG | 0.0894
ATCTTCCG | 0.0423
ACCGATCT | -0.056
CGATGAAG | 0.00162
TAATAGCA | -0.0461
ATACAAAT | 0.278
ACGGTTAC | 0.124
ATAGCACA | 0.125
